Results as given in PubChem BioAssay AID488969 (Vanderbilt High Throughput Screening Facility, 2010).
Over roughly 110,000 compounds, “z-score” has its median near -0.1; the highest 2% begin near 2. The list shows a part of the results.

molecular target: Metabotropic glutamate receptor 8 (Rattus norvegicus) (UniProt P70579); assay: rat mGluR8 modulators via GIRK flux, primary screen, cell-based, thallium flux, HTS (AID 488969); settings: HEK293 rat mGluR8, GIRK (G protein-gated inwardly rectifying potassium channel) thallium flux, FluoZin2; at 10 µM; stronger effect = higher value; submaximal glutamate (EC20) added with thallium
Chain of UniProt P70579 (P70579 whole entry, looked up): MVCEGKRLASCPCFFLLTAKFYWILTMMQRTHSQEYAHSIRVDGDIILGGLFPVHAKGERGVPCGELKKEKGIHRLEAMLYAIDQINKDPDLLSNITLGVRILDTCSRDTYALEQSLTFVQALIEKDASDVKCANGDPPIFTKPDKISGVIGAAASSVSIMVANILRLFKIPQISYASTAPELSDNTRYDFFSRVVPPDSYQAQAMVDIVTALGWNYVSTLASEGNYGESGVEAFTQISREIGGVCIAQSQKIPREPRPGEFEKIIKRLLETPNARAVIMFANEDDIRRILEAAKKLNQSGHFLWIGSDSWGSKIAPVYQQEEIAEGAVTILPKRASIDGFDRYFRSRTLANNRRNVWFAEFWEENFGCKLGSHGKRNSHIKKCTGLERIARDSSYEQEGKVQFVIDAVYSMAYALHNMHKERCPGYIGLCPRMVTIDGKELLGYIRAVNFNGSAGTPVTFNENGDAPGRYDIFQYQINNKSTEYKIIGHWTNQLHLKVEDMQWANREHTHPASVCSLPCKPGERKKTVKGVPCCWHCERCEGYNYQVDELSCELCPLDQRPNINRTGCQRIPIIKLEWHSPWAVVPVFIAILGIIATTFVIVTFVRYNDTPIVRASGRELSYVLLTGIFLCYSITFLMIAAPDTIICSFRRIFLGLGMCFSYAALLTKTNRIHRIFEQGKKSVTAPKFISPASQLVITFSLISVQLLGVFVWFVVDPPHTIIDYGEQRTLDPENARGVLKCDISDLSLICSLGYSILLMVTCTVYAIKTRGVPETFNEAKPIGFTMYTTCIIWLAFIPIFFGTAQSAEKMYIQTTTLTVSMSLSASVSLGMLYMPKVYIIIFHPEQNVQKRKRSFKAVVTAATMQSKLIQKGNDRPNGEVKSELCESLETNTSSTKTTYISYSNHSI

First: O=C(O)c1cc2nc(C3CC3)cc(C(F)(F)F)n2n1
Second: Cc1ccccc1C(=O)N1CCC(C(=O)O)CC1
The z-score of the first is higher: 1.23 for the first, 0.775 for the second.

Going from Cn1c(SCc2ccc(F)cc2)nnc1-c1cccs1 to Cc1nc(CSc2ccc(Cl)cc2)cc(NCc2ccccc2)n1, the z-score rises from 0.134 to 1.02.

First: O=S(=O)(Nc1ccccc1)c1ccc(F)cc1
Second: Cc1ccc(S(=O)(=O)N/N=C\c2ccccc2OCc2ccccc2)cc1
The z-score of the first is higher: 0.0918 for the first, -0.0338 for the second.

Going from Clc1cccc(N/N=C/c2ccc(N3CCOCC3)s2)c1 to Cc1cccc(NC(=O)CN2C(=O)N/C(=C\c3ccc(N4CCOCC4)cc3)C2=O)c1, the z-score rises from 0.0677 to 0.186.

Going from CCCC1(C(=O)OCC)NC(c2ccc(O)cc2)C2C(=O)N(c3ccc4c(c3)OCCO4)C(=O)C21 (centres undefined) to COc1ccc(C(=O)NCC(=O)OCC(=O)c2ccc3c(c2)OCCO3)cc1, the z-score falls from 0.19 to -0.196.

Going from COC(=O)c1ccccc1NC(=O)C1CC(c2ccccc2O)=NO1 (centres undefined) to CS(=O)(=O)Nc1ccccc1C(=O)Nc1ccccc1Cl, the z-score falls from 2.57 to -0.0832.

Compared with O=C(/C=C/c1ccccc1)n1cnnc1SC/C=C/c1ccccc1, O=C(CSc1nnc(-c2ccncc2)n1Cc1ccccc1)NCCc1ccccc1 is lower in z-score: -0.103 for the first, -0.454 for the second.

Going from COC(CNC(=O)c1cc(Sc2nnc(C)s2)nc2ccccc12)OC to CC(C)Cc1nnc(NC(=O)c2cc(-c3ccccc3)nc3ccccc23)s1, the z-score falls from 0.115 to -0.456.

Going from Cc1ccc2c(c1)CCCN2C(=O)c1ccc2c(c1)OCO2 to CCN(CC)S(=O)(=O)c1ccc(N/N=C(\C)c2ccc3c(c2)OCO3)c([N+](=O)[O-])c1, the z-score falls from -0.679 to -1.24.

First: COc1cc(CNCCc2ccc(S(N)(=O)=O)cc2)ccc1OCc1ccc(Cl)cc1
Second: COc1cc(CC(=O)Nc2ccc(S(=O)(=O)Nc3ncccn3)cc2)cc(OC)c1OC
The z-score of the first is lower: 0.852 for the first, 1.19 for the second.

Compared with CC12CCC(C/C1=N\N=C1\NC(=O)/C(=C\c3ccc(Cl)cc3)S1)C2(C)C (centres undefined), CCOC(=O)C1=C(C)C(c2ccc(OC)cc2)NC(=S)N1 (centres undefined) is higher in z-score: 0.00679 for the first, 0.0191 for the second.

Going from CC(=O)c1cc2c(cc1NC(=O)CN1CCCCC1C)OCO2 (centres undefined) to CCc1ccccc1NC(=O)NC1CCCCC1, the z-score falls from -0.0192 to -0.1.

First: OCCN(Cc1ccccc1)Cc1ccc(Cl)cc1Cl
Second: Cc1cccc(/C(N)=N/OC(=O)c2ccc(Cl)cc2Cl)c1
The z-score of the first is higher: 0.0495 for the first, -0.137 for the second.

Compared with N#CCSc1ncccc1-c1nc2ccccc2[nH]1, O=c1c2ccccc2nc2c3ccccc3ncn12 is lower in z-score: -0.0878 for the first, -0.105 for the second.

First: Cc1csc(SCC(=O)NC23CC4CC(CC(C4)C2)C3)n1
Second: CCCn1c(=N)c(C(=O)NC2CCCC2)cc2c(=O)n3cccc(C)c3nc21
The z-score of the first is lower: -0.149 for the first, 0.787 for the second.

First: Cc1cccc(C)c1NC(=O)CN(C)C(=O)/C=C/c1cccs1
Second: Cc1cc(C)cc(NC(=O)NC2CCN(CC(=O)Nc3c(C)cc(C)cc3C)CC2)c1
The z-score of the first is lower: -0.227 for the first, 0.931 for the second.

Going from COc1ccc(NC(=O)N(Cc2ccc(C)cc2)Cc2ccccn2)c(OC)c1 to COc1ccc(OC)c(-c2cc(C(=O)Nc3c(C)nn(Cc4ccccc4)c3C)no2)c1, the z-score falls from -0.566 to -0.945.

Going from Cc1cc(NC(=O)COC(=O)[C@H](Cc2c[nH]c3ccccc23)NC(=O)c2ccc(F)cc2)no1 to CCOc1ccccc1NC(=O)COC(=O)Cc1ccc(-c2ccccc2)cc1, the z-score rises from -2.29 to -0.43.

Compared with O=C(NC(=S)Nc1ccc(Oc2ccccc2)cc1)c1ccc(Cl)cc1, O=C(COc1cc(O)c2c(=O)cc(-c3ccccc3)oc2c1)c1ccccc1 is lower in z-score: 1.23 for the first, 0.0143 for the second.

First: CCn1nnc(-c2ccccc2NS(=O)(=O)c2ccc(S(=O)(=O)N3CCCCCC3)cc2)n1
Second: CC1CC(C)CN(S(=O)(=O)c2ccc(C(=O)Nc3sccc3C(N)=O)cc2)C1 (centres undefined)
The z-score of the first is lower: -0.187 for the first, -0.179 for the second.

Compared with O=C(NCc1ccc(C(F)(F)F)cc1)C1CC(c2c(Cl)cccc2Cl)=NO1 (centres undefined), CC(=O)N1N=C(c2ccc(Br)cc2)CC1c1cn(C)c2ccccc12 (centres undefined) is lower in z-score: -0.237 for the first, -0.26 for the second.

Compared with COc1ccc(COC(=O)c2nc3nc(C)cc(C)n3n2)cc1F, COCCNC(=O)c1onc(CSc2ccc(C)c(C)c2)c1C(=O)O is higher in z-score: -0.584 for the first, -0.0285 for the second.

Compared with CCOCc1nnc(NC(=O)c2ccc(OC)cc2)s1, CCCCC(=O)Nc1nc(C)c(C(C)=O)s1 is higher in z-score: 0.472 for the first, 0.65 for the second.

Compared with CC1=C(C)CC(C(=O)Nc2cccc(Cl)c2)C(C(=O)O)C1 (centres undefined), COC(=O)c1cc(OC)c(OC)cc1NC(=S)Nc1cccc(Cl)c1 is higher in z-score: -0.289 for the first, 0.731 for the second.

First: Nc1c(Sc2ccccc2)c(=O)[nH]c(=O)n1Cc1ccccc1
Second: O=S(=O)(Cc1ccccc1)NCc1ccccn1
The z-score of the first is lower: -1.01 for the first, 0.0602 for the second.

Going from COc1cc2[nH]c3c(N4CCN(c5ccc(Cl)cc5)CC4)ncnc3c2cc1OC to COc1ccc(N2CCN(C(=O)CSc3nnc4c5cc(C)ccc5n(C)c4n3)CC2)cc1, the z-score falls from -0.117 to -0.181.

First: CCN(CC)CCCNC(=O)c1cn(CCOC)c(=O)c2c1c1ccccc1n2C
Second: COCCNC(=O)c1cc2sc3ccccc3c2s1
The z-score of the first is lower: -0.357 for the first, -0.125 for the second.

Going from CC(=C/c1ccc(C(C)C)cc1)/C=N/NC(=O)c1ccncc1 to Cc1ccc(C(=O)N/C(=C/c2ccco2)C(=O)NCC2CCCO2)cc1 (centres undefined), the z-score falls from 2.21 to -0.297.

First: O=C(CCNS(=O)(=O)c1ccc2c(c1)CCC(=O)N2)NCc1cccnc1
Second: Cc1cc(C)cc(OCC(=O)NNC(=O)CN2C(=O)c3ccccc3C2=O)c1
The z-score of the first is lower: -0.489 for the first, 1.83 for the second.

First: Cc1cc(Cl)ccc1OCC(=O)N1CCCCC1
Second: CCOC(=O)N1CCC(NC(=O)c2ccc3c(c2)N(Cc2ccc(C)cc2)CCS3)CC1
The z-score of the first is lower: 0.592 for the first, 1.04 for the second.

First: COc1ccc(-c2noc(CSc3nc4sc(C)c(C)c4c(=O)n3-c3ccccc3)n2)cc1OC
Second: COc1ccc(-c2cc(-c3ccc(C)cc3)nc(SCc3nnc(-c4ccccc4)o3)c2C#N)cc1OC
The z-score of the first is lower: -1.48 for the first, -0.105 for the second.

Compared with CCOc1ccc2c(c1)C(c1ccc(C)cc1)=NNC(c1ccc(C)cc1)=N2, CCOC(=O)C1=C(N)n2c(s/c(=C/c3ccccc3)c2=O)=C(C(=O)OCC)C1c1ccccc1 (centres undefined) is higher in z-score: -0.774 for the first, 0.723 for the second.

First: CC12CCC(C(=O)N3CCN(c4ncccn4)CC3)(c3nc4ccccc4nc31)C2(C)C (centres undefined)
Second: O=C(c1ccco1)N1C(=O)c2cccc3cccc1c23
The z-score of the first is higher: -0.165 for the first, -0.63 for the second.

Compared with Cc1cc(N=Cc2cc(Br)ccc2O)no1, CCOC(=O)c1c(SC)nc(SC)c2c1CCC2 is higher in z-score: -1.2 for the first, -0.3 for the second.

CCOc1ccc(C(=O)NCC(C)CN(C)C)cc1OCC (centres undefined) gave a z-score of 0.128.
